Measured values published in PubChem BioAssay AID1346428 (National Center for Advancing Translational Sciences (NCATS), 2018).
Where “and” joins values, the source holds several entries; their conditions need not be identical. Identical values can stand only once. The campaign covered roughly 48,000 compounds. About 1,200 (2.5%) were called active. Roughly 2% stayed inconclusive and do not appear here.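 Rule for the calls: active = activation of at least 60% and not above a set upper limit (about 1 call in 100 departs from these limits); inconclusive = activation of 40% to 60%, or above that upper limit; inactive = activation under 40%.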 The list shows a part of the results.

target: Probable G-protein coupled receptor 32 (Homo sapiens) (UniProt O75388); assay: qHTS for Agonists of Human Resolvin D1 Receptor DRV1; conditions: CHO-K1 GPR32 beta-arrestin PathHunter luminescence, 90 min; at 76.9 µM; hits give high values; zero percent set by DMSO-only wells; note: 0% is about no effect
Outline: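 PathHunter beta-arrestin recruitment in CHO-K1 cells stably expressing ProLink-tagged GPR32. Cells were exposed to compound for 90 min at 37 C, then chemiluminescence was read after 1 h detection at ambient temperature; DMSO served as basal control.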

Chain of UniProt O75388 (O75388 whole entry, looked up): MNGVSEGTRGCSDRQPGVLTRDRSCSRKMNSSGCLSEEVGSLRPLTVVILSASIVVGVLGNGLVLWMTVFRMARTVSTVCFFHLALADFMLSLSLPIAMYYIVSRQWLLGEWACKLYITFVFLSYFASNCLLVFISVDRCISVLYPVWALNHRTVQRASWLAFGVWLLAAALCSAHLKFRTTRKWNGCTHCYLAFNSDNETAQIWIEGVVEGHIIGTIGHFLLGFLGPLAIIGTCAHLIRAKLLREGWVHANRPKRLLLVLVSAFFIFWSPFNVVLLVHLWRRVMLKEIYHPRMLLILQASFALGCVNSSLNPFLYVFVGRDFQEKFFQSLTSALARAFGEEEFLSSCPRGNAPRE

activation, inactive:
CC(=O)O[C@@H]1C(=O)O[C@@H]2[C@H]1OC(=O)[C@@H]2OC(C)=O -9.43%
Clc1ccc2nc(Nc3ccccc3Cl)nc(-c3ccccc3)c2c1 -9.83%
CCOc1ccc(-n2c(=O)c3c4c(sc3n(Cc3cccc(C)c3)c2=O)CCCC4)cc1 30.5%
CCc1ccc(NS(=O)(=O)c2ccc3[nH]cc(C(=O)NCc4ccc(C)cc4)c(=O)c3c2)cc1 16.2%
CCOCCCNC(=O)C1CCN(c2cc(C)nc3c(-c4ccc(Cl)cc4)c(C)nn23)CC1 -10.5%
CCc1ccc(NCc2cc3cc4c(cc3n(CC(=O)Nc3ccccc3Cl)c2=O)OCO4)cc1 -16.5%
Cc1ccc(-c2cn3c(n2)sc2cc(C(=O)NC4CCCc5ccccc54)ccc23)cc1 (stereo not drawn) -7.78%
Cc1ccc(NC(=O)c2cc3c(-c4ccccc4)nn(-c4ccccc4)c3s2)cc1 -11.4%
O=C(Nc1ccc(Br)cc1F)C(NS(=O)(=O)c1cccc2nsnc12)c1ccccc1 (stereo not drawn) -17.9%
CCOc1ccccc1NC(=O)Nc1cc(C(=O)NCc2ccc(C)cc2)ccc1N1CCCC1 -18.3%
COc1ccc(OC)c(NC(=O)c2c(NCc3ccc(OC)c(OC)c3)sc3c2CCC3)c1 -18.2%
CC1=C(/C=C/C(C)=C/C=C/C(C)=C\C(=O)O)C(C)(C)CCC1 -8.05%
CC/C(=C(/CC)c1ccc(O)cc1)c1ccc(O)cc1 37.3%
COc1ccc(CNC(=O)c2cc3c(-c4ccccc4F)nn(C)c3s2)cc1 -4.77%
COc1ccc(NC(=O)Cn2c(=O)n(CC(=O)NCCc3ccccc3)c(=O)c3ccccc32)cc1 -5.81%
COc1ccccc1NC(=O)CSc1cn(CC(=O)N2CCCC2)c2ccccc12 -16.6%
CC(=O)c1cccc(NC(=O)CCc2c(C)nc3nc(CN)nn3c2C)c1 -7.45%
CC(=O)N1CCc2c(sc3c2c(=O)n(-c2ccccc2Cl)c(=O)n3Cc2cccc(C)c2)C1 4.91%
CCOC(=O)N1CCN(Cc2nc3cc(NC(=O)c4ccccc4Cl)ccc3n2C(C)C)CC1 -6.3%
O=C(Cn1cc(S(=O)(=O)N2CCCC2)c(S(=O)(=O)N2CCCC2)c1)Nc1ccc(F)cc1 -11.6%
Cc1ccc2nc(-c3cccs3)c(Nc3ccc4c(c3)OCCO4)n2c1 -17.8%
Cc1cc(-c2ccccc2)nnc1NCCN1CCOCC1 1.09%
CCOC(=O)c1ccc(NC(=O)N2CC3CCCN3c3ccccc32)cc1 (stereo not drawn) -17.2%
CCC1CCCCN1C(=O)CSc1nnc(-c2ccc(OC)c(OC)c2)o1 (stereo not drawn) -9.42%
CCC(=O)N1CCc2cc(S(=O)(=O)NCc3ccc(C)cc3)ccc21 18.4%
COc1ccc(Cl)cc1Nc1ccc2cc(S(=O)(=O)N3CCCCC3)ccc2n1 -13.6%
COc1ccccc1NC(=O)C1=C(C)Nc2nc3ccccc3n2C1c1ccccc1Cl (stereo not drawn) 4.02%
CN(C)c1ncc(C(=O)NCc2ccc(Cl)cc2)cn1 23%
CCOc1ccc(NC(=O)c2ccc(F)c(S(=O)(=O)N(Cc3ccc(C(=O)OC)cc3)Cc3ccc(OC)c(OC)c3)c2)cc1 -20.7%
O=C(Cn1cc(C(=O)c2ccco2)c2ccccc21)Nc1ccccc1 -7.47%
CCOc1ccc(N2CC(C)Cn3c2nc2c3c(=O)n(Cc3c(F)cccc3Cl)c(=O)n2C)cc1 (stereo not drawn) -6.85%
Cc1ccc(-c2nnn3c2nc(NC2CCC(C)CC2)c2ccccc23)cc1 (stereo not drawn) 4.68%
O=C(CSc1ncc(-c2ccccc2)[nH]1)Nc1cccc(Br)c1 4.33%
NC(N)=Nc1nc(CSCC/C(N)=N/S(N)(=O)=O)cs1 -11.6% and 6.07%
Cc1cc2n(n1)CCCN2C(=O)Nc1ccc(F)c(Cl)c1 3.57%
CCOCCc1nnc(NC(=O)C(=O)c2cc(C)n(-c3ccc(Cl)cc3)c2C)s1 25%
Cc1ccc(S(=O)(=O)c2cnc(SCC(=O)Nc3ccc4c(c3)OCCO4)[nH]c2=O)cc1C 14.8%
COC(=O)CN1C(C(=O)c2ccccc2)=C(OC(=O)c2ccc(F)cc2)c2ccccc2S1(=O)=O -5.48%
CCN(CCCNC(=O)c1cc2c(=O)n(CC)c3ccccc3c2s1)Cc1ccccc1 -13.3%
CC1CCCCN1C(=O)c1ccc2c(c1)N(Cc1ccc(F)cc1)C(=O)c1ccccc1S2(=O)=O (stereo not drawn) -9.32%
COc1cccc(-c2nc3c(C#N)c[nH]n3c2NC2CCCC2)c1OC -33.9%
COc1cccc(-n2c(C)nc3cc(C(=O)O)ccc32)c1 19.6%
COc1cc2nc(NC(=O)c3ccc(S(=O)(=O)N4CCc5ccccc54)cc3)sc2cc1OC -62.4%
CC1CCN(c2oc(-c3cccs3)nc2S(=O)(=O)c2ccccc2)CC1 -6.38%
CCOc1ccc(CNC(=O)C2CCN(c3nc4ccccc4nc3C(F)(F)F)CC2)cc1OC -1.75%
CCc1c(C)sc2c1CCN(Cc1ccccc1C#N)C2c1ccccc1 (stereo not drawn) -0.0302%
COc1ccc(CCNC(=O)c2cnc3sc(N4CCOCC4)nn3c2=O)cc1 3.91%
CCOC(=O)c1cnc2c(ccc3ccccc32)c1Nc1cccc(Cl)c1 -5.74%
Cc1nn(C)c2c1c(-c1ccccc1)cc(=O)n2Cc1ccc(F)cc1 -4.36%
COc1ccc(-n2nc3ccc(NC(=O)c4cccc(OCCC(C)C)c4)cc3n2)cc1 -5.99%
COc1ccc(-n2cc(-c3ccc4c(c3)OCO4)n(CC(=O)Nc3cc(Cl)ccc3C)c2=O)cc1 -3.96%
COc1ccccc1CNC(=O)C(NS(=O)(=O)c1ccc2c(c1)CCN2C(C)=O)C(C)C (stereo not drawn) -13.8%

activation, active:
Cc1cc(OCC(=O)N2CCC(c3nc4ccccc4s3)CC2)ccc1Cl 78%
